Series [1] deals with the molecule itself. Nature of the series: FRET or BRET; as a3 but with 2 mM ATP (ATP-bound); full-length MR complex, 0.5 uM. (BRET reads energy transfer from a luciferase to a nearby fluorophore.)
Series [2] concerns the molecule itself. Nature of the series: FRET or BRET; LRET on dual-labelled (Tb3+ chelate and Bodipy FL on L51C) full-length Rad50 mixed 1:1 with Mre11, 0.5 uM MR complex; donor-sensitized acceptor lifetimes, three-exponential fit; no ATP (apo); 50 mM Tris, 200 mM NaCl, 5 mM MgCl2, pH 7.5, 50 °C; percent of LRET-visible molecules only.

B1: Full-length P. furiosus Rad50 L51C/D829A, LRET-labelled (natural protein)
chain: not shown
modifications: Tb3+ chelate DTPA-cs124-EMPH and Bodipy FL maleimide added together, on the cysteine L51C
notes: Rad50, Pyrococcus furiosus, full length; Measured within the full-length MR complex with Mre11; also called D829A full-length MR (LRET); source: E. coli Rosetta (DE3), purified (heat, HisTrap, TEV cleavage, HiTrapQ, Superdex 200); labelled; not shown: His6, N-terminal, cleaved
For the protein B1, the entries for the “percent of molecules in the closed state” value in series [1] and in series [2] were 24% and 17%, respectively.

B2: Full-length P. furiosus Rad50 L51C/L828F, LRET-labelled (natural protein)
chain: not shown
modifications: Tb3+ chelate DTPA-cs124-EMPH and Bodipy FL maleimide added together, on the cysteine L51C
notes: Rad50, Pyrococcus furiosus, full length; Measured within the full-length MR complex with Mre11; also called L828F full-length MR (LRET); source: E. coli Rosetta (DE3), purified (heat, HisTrap, TEV cleavage, HiTrapQ, Superdex 200); labelled; not shown: His6, N-terminal, cleaved
For B2, the “percent of molecules in the closed state” value in series [1] came out at 25%; in series [2] it was 19%.

B3: Full-length P. furiosus Rad50 L51C/L828A, LRET-labelled (natural protein)
chain: not shown
modifications: Tb3+ chelate DTPA-cs124-EMPH and Bodipy FL maleimide added together, on the cysteine L51C
notes: Rad50, Pyrococcus furiosus, full length; Measured within the full-length MR complex with Mre11; also called L828A full-length MR (LRET); source: E. coli Rosetta (DE3), purified (heat, HisTrap, TEV cleavage, HiTrapQ, Superdex 200); labelled; not shown: His6, N-terminal, cleaved
B3: the “percent of molecules in the closed state” value in series [1] worked out at 17%; in series [2] it was 16%.

B4: Full-length P. furiosus Rad50 L51C/D829N, LRET-labelled (natural protein)
chain: not shown
modifications: Tb3+ chelate DTPA-cs124-EMPH and Bodipy FL maleimide added together, on the cysteine L51C
notes: Rad50, Pyrococcus furiosus, full length; Measured within the full-length MR complex with Mre11; also called D829N full-length MR (LRET); source: E. coli Rosetta (DE3), purified (heat, HisTrap, TEV cleavage, HiTrapQ, Superdex 200); labelled; not shown: His6, N-terminal, cleaved
Regarding B4, the “percent of molecules in the closed state” value in series [1] is 20%; in series [2], 19%.

B5: Full-length P. furiosus Rad50 L51C, LRET-labelled (natural protein)
chain: not shown
modifications: Tb3+ chelate DTPA-cs124-EMPH and Bodipy FL maleimide added together, on the cysteine L51C (Zn-hook cysteines labelled ~10% in a control)
notes: Rad50, Pyrococcus furiosus, full length, cloned from genomic DNA (ATCC); Dual-labelled Rad50 mixed 1:1 with Mre11; the LRET reports on the association of the two NBDs within the full-length MR complex; also called wild type full-length MR (LRET); full-length Pf Rad50 L51C; source: E. coli Rosetta (DE3), purified (heat, HisTrap, TEV cleavage, HiTrapQ, Superdex 200); labelled; not shown: …
As for B5, the entries for the “percent of molecules in the closed state” value in series [1] and in series [2] were 28% and 15%, respectively.

Source of the values: publication PMC7049730, “Adjacent mutations in the archaeal Rad50 ABC ATPase D-loop disrupt allosteric regulation of ATP hydrolysis through different mechanisms” (Nucleic Acids Research, 2019).
